For this data set, the target named is Nterm1 (UniProt position 1, -----MQIFVK). Description: NMR. The settings on record: 21.5 °C, 100 mM KCl, 2 mM Tris, 2 mM formate, 2 mM piperazine, 2 mM imidazole, 0.2 mM DSS, free ubiquitin, folded throughout the pH range (checked by SOFAST-HMQC), 0.5 mM.

Drawing on article PMC5333110, this text covers pKa for one substance.

Entries with a single value are a further part of the results.

Usually pKa stands for the negative logarithm of the acid dissociation constant. Consider Ubiquitin (Homo sapiens), for which the pKa was 9.18 (Gln2-1HN shift, SOFAST-HMQC); 9.15 (Gln2-15N shift, SOFAST-HMQC); 9.16 (Met1-1Hα shift, HA(CA)N); 9.14 (Met1-15N shift, HA(CA)N).
